Results as given in article PMC4336329 (PLoS ONE, 2015).
Among all 310,000 compounds or so, about 14,000 (4.5%) showed an effect of 50% or more. Effects have a minus sign here. Some of the results follow.

biological target: human ether-à-go-go-related gene (hERG) potassium channel (human, UniProt Q12809); test: primary screen, population patch clamp on CHO cells stably expressing hERG
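Further: peak tail current of the secondary pulse compared with the same well before compound.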

Chain of human ether-à-go-go-related gene (hERG) potassium channel (Q12809 whole entry, looked up): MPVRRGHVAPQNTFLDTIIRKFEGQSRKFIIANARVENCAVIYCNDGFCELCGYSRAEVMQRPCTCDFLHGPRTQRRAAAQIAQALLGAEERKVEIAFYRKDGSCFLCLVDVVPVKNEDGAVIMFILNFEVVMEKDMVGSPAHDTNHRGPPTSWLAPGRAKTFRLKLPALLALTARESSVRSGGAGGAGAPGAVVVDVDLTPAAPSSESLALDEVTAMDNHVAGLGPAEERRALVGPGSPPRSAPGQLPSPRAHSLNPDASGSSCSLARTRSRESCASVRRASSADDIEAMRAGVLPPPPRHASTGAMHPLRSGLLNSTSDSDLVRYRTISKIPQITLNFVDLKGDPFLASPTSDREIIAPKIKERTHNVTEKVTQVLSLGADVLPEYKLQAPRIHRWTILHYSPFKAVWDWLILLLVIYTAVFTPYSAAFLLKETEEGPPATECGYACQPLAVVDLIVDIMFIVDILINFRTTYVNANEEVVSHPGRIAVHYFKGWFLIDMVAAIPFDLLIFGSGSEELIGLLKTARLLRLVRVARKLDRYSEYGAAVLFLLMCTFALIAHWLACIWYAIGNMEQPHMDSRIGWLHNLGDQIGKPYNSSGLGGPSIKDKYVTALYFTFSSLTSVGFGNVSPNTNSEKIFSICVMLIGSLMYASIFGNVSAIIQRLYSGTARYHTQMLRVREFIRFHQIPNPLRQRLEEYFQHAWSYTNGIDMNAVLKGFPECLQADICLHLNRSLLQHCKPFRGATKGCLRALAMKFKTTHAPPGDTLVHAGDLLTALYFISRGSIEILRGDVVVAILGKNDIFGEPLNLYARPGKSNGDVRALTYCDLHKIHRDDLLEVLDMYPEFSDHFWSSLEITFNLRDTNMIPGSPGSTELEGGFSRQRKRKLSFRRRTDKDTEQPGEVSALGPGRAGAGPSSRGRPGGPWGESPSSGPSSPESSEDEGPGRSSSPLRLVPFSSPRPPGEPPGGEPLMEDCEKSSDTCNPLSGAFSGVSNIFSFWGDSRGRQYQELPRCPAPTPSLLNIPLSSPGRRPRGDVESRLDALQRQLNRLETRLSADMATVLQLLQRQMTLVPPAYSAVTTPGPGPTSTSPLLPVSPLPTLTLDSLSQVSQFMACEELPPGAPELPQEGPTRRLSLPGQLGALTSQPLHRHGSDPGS

| SMILES | hERG current change (%, negative = inhibition) at 10uM [%] |
| --- | --- |
| CCCN1CCN(S(=O)(=O)c2cc3c(cc2C)NC(=O)CO3)CC1 | -21.6 |
| CN(C)c1ccc(/C=C/C=C/c2sc3ccccc3[n+]2C)cc1.[O-][Cl+3]([O-])([O-])[O-] | -42.6 |
| COc1cc(Cl)c(C)cc1NC(=O)[C@@H]1CCCN1C(=O)c1cccs1 | 4.64 |
| O=C(OCC(=O)N1CCc2ccccc2C1)c1ccc(Cl)c([N+](=O)[O-])c1 | -20.7 |
| Cc1ccccc1Cn1ccc(NC(=O)c2cc3ncc(Br)cn3n2)n1 | 5.35 |
| O=C(Nc1ccccc1F)C(=Cc1sc(N2CCOCC2)nc1-c1ccccc1)C(=O)Nc1ccccc1F | 23.1 |
| Cc1ccc(-c2cccc(C(=O)NCCc3ccccc3)n2)c2ccccc12 | 8.21 |
| Cn1c(N/N=C/c2cc3ccccc3nc2Cl)nc2ccccc21 | 11.5 |
| CCCCOC(=O)c1ccccc1N1C(=O)C2C3CCC(C3)C2C1=O (centres unmarked) | 11.2 |
| CCC(=O)N(Cc1ccco1)c1nc(-c2ccccc2)cs1 | -1.16 |
| Cn1c(=O)c2nc3ccccc3nc2n(C)c1=O | -1.75 |
| CCN1CCN(C(=O)c2ccc(Cl)c(S(=O)(=O)N3CCCCC3)c2)CC1 | -69.8 |
| CCN(CC(=O)NCc1cccs1)C(=O)c1ccc(NS(=O)(=O)c2ccc(C(C)=O)cc2)cc1 | 9.43 |
| Cc1ccccc1NC(=O)CSc1nnc(-c2ccco2)n1N | 4.14 |
| O=c1nc2ccc(Cl)cn2c2ccc(S(=O)(=O)N3CCCCC3)cc12 | -0.392 |
| c1ccc2c(c1)nnn2CNc1nccs1 | 16.8 |
| Cc1ccc2sc(C)[n+](CCCS(=O)(=O)[O-])c2c1 | 10.9 |
| CN(C(=O)CSc1nnc(C2CC2)n1C1CC1)C1(C#N)CCCCC1 | -5.85 |
| COc1cc(CCCN2CCNC[C@@H]2C(C)O)cc(OC)c1OC (some centres unmarked) | 11.2 |
| COc1ccccc1NC(=O)c1ccc2c(c1)N(CC(=O)NC(C)C)C(=O)C(C)(C)O2 | 6.66 |
| O=C(CC(=O)NC1CCCCC1)N/N=C/c1ccccc1F | 12 |
| COc1cc(/C=N/NC(=O)c2cccs2)ccc1OCc1ccccc1 | 9.59 |

| SMILES | hERG current change (%, negative = inhibition) at 10uM [%] |
| --- | --- |
| Cc1nc2nc(SCC(=O)c3cccc([N+](=O)[O-])c3)[nH]c2cc1Br | 0.603 |
| Cc1noc(NS(=O)(=O)c2ccc(NC(=O)CC(C)C)cc2)c1C | 17.5 |
| CCOC(=O)C1(CCCc2ccccc2)CCN(C(=O)c2ccoc2)CC1 | -54.3 |
| CCOC(=O)c1c(NC(=S)Nc2ccc(OC)cc2)sc2c1CCC2 | 14 |
| O=C(CSc1nc2ccccc2[nH]1)Nc1cc(C(F)(F)F)ccc1N1CCOCC1 | -37.7 |
| Cc1ccc(NC(=O)COc2ccc(S(=O)(=O)N3CCOCC3)cc2)cc1 | 7.98 |
| O=C(O)CCc1nnc(SCC(=O)Nc2cccc(C(F)(F)F)c2)[nH]c1=O | 28.1 |
| CCCN1C(=O)CC(Sc2ncccc2C(=O)O)C1=O (centres unmarked) | 12.9 |
| CCc1ccc(-c2nc(SCC(=O)NC3CCS(=O)(=O)C3)n[nH]2)cc1 (centres unmarked) | 4.84 |
| COCC(C)Nc1ncnc2c1cnn2-c1ccc(Cl)cc1 (centres unmarked) | 2.94 |
| Cc1cccc(C)c1OCCCN1CCCC1 | -1.78 |
| COc1ccc(CN(Cc2cccnc2)C(=S)NCCc2ccccc2)cc1OC.O=C(O)C(=O)O | -50.5 |
| Cc1cc2ccccc2n1CCNC(=O)c1ccc(S(=O)(=O)N2CCOCC2)cc1 | 3.41 |
| CCOC(=O)c1c(C)n(C)c2ccc(OC(C)=O)cc12 | -7.24 |
| COc1ccccc1CNC(=O)C(=O)NCC1OCCCN1S(=O)(=O)c1cccs1 (centres unmarked) | 7.62 |
| CCc1[nH]nc(C(=O)N2CCCC(C(=O)c3cccc(C(F)(F)F)c3)C2)c1C (centres unmarked) | -10.4 |
| Cc1ccc(OCC(=O)N/N=C/c2cn(C)c3ccccc23)cc1 | 10.2 |
| CCCCNC(=O)CNC(=S)N(Cc1ccc(C)cc1)Cc1ccco1 | -28.9 |
| O=C(CCn1cncn1)N1CCCC(N2CCN(c3cccc(C(F)(F)F)c3)CC2)C1 (centres unmarked) | -35.8 |
| CC12CCCCC1=[N+]([O-])CN2O (centres unmarked) | 9 |
| Cc1nc(/C(N)=N/OC(=O)c2ccc(Cl)cc2)c(C(F)(F)F)o1 | -7.21 |
| Cc1cc(Cl)c(OCCCNC2CCCC2)c(Br)c1.O=C(O)C(=O)O | -56.9 |
